This is an account of results in article PMC4336329 (PLoS ONE, 2015).

In all, about 310,000 compounds went through this assay and about 14,000 (4.5%) showed an effect of 50% or more. Effects have a minus sign here. This is one part of the list.
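Further: peak tail current of the secondary pulse compared with the same well before compound.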

Sequence of human ether-à-go-go-related gene (hERG) potassium channel (Q12809 whole entry, looked up): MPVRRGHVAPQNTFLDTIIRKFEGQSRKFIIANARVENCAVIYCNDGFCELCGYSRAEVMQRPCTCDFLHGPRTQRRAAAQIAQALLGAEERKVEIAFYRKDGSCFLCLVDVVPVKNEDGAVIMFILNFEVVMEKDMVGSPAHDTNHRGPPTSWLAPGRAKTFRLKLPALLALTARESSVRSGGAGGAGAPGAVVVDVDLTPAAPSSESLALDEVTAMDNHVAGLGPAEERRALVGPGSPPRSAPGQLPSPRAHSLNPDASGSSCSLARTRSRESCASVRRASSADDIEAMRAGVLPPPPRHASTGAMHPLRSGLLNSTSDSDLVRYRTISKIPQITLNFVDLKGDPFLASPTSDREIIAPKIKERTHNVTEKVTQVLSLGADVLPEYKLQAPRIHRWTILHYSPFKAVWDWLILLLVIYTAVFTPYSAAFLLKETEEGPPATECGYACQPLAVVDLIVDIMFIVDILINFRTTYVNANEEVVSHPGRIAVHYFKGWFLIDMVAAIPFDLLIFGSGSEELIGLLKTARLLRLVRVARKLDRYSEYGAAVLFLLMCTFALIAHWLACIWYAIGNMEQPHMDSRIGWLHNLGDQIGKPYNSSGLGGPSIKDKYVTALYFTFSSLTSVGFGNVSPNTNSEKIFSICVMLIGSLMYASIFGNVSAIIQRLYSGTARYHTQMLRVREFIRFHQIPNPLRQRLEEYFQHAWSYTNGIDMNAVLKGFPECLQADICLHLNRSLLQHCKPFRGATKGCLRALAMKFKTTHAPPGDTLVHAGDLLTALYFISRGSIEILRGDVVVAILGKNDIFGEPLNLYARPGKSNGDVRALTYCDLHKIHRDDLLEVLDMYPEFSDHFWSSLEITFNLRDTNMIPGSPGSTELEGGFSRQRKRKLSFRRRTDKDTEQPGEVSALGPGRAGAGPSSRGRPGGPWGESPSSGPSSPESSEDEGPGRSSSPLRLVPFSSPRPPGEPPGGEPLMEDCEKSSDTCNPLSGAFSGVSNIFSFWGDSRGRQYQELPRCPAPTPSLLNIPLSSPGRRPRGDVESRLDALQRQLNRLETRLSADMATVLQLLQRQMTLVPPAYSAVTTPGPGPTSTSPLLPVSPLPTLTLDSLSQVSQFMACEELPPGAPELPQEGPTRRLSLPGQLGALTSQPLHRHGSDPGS

The test has as its target human ether-à-go-go-related gene (hERG) potassium channel (human, UniProt Q12809). The experiment in a line: primary screen, population patch clamp on CHO cells stably expressing hERG.
As to `CC(N)Cc1cn(Cc2ccccc2)c2ccccc12.Cl` (stereo not shown), the “hERG current change (%, negative = inhibition) at 10uM” value was -7.76%. As for `CCCN(CCC)CCNC(=O)C1CCCN(S(=O)(=O)c2ccc3c(c2)oc(=O)n3C)C1` (stereo not shown), the “hERG current change (%, negative = inhibition) at 10uM” value was found to be 10.7%.

Take `CCN(CC)S(=O)(=O)c1cccc(C(=O)NCC(c2ccccc2)N(C)C)c1` (stereo not shown): the “hERG current change (%, negative = inhibition) at 10uM” value is -9.36%.

For the compound `CC(C(=O)NC1CCCC1)N(C(=O)Cn1nnc(-c2ccc(F)cc2)n1)c1ccccc1F` (stereo not shown), the “hERG current change (%, negative = inhibition) at 10uM” value is 0.403%. Take `COc1ccccc1Cn1c(=S)[nH]c2cc(C(=O)NCCCN3CCOCC3)ccc2c1=O`: the “hERG current change (%, negative = inhibition) at 10uM” value is listed as -7.16%. To `O=C(Cc1ccccc1)N/N=C/c1ccc[nH]1` belongs 21.7%. Consider `CC(=O)c1c(C)[nH]c(C(=O)N2CCN(c3ccccn3)CC2)c1C`, for which the “hERG current change (%, negative = inhibition) at 10uM” value is reported as 10.4%. Take `CC(C)(C)C(=O)CC(=O)Nc1ccc(Cl)c(N)c1`: the “hERG current change (%, negative = inhibition) at 10uM” value came to 14.1%. To `O=C(Nc1cc(S(=O)(=O)N2CCCC2)ccc1OCC(F)(F)F)c1ccccc1F` belongs 18.5%. To `CC(C)n1c(SCC(=O)c2ccc3c(c2)OCCO3)nc2c1c(=O)n(C)c(=O)n2C` belongs 2.04%; to `COc1cccc(N2CCN(CC(=O)Nc3ccc(-n4cnnn4)cc3)CC2)c1`, 7.28%; to `CC1CN(C(=O)CCC(=O)N2CCCCC2)c2ccccc2O1` (stereo not shown), 7.55%.

Consider `CC(=O)c1cccc(-n2c(CCC(=O)O)ccc2-c2ccccc2)c1`, for which the “hERG current change (%, negative = inhibition) at 10uM” value is 18.1%. To `CC(C)CNC(=O)Cn1c(=O)c2c(ncn2CC(C)C)n(Cc2ccccc2)c1=O` belongs 13.2%; to `CCOc1ccc2nc3c(cc2c1)CN(CCOC)C(=NCCOC)S3`, -5.18%. Take `CCOc1ccccc1/C=C/c1onc(C)c1S(=O)(=O)N1CCC(C(=O)NC)CC1`: the “hERG current change (%, negative = inhibition) at 10uM” value is -4.96%. For the compound `Clc1ccc(-c2nnc(CCc3ccccc3)o2)c(Cl)c1`, the “hERG current change (%, negative = inhibition) at 10uM” value is listed as -3.82%. To `CN(C)CCNc1ncnc2sc(-c3ccccc3)cc12` belongs -21.1%; to `CN(C)c1c(F)cc(C(=O)NC(=O)NCc2cccnc2)cc1F`, 7.15%; to `Cc1cccc(NC(=O)c2cnn(-c3ccccc3)c2C)c1C`, 15.4%. For `COc1ccc(C(=O)NC2CCN(CC(=O)N3CCCCC3)CC2)cc1`, the “hERG current change (%, negative = inhibition) at 10uM” value worked out at 13.6%. For the compound `COC(=O)C1=C(C)Nc2nnnn2C1c1ccc(Cl)cc1Cl` (stereo not shown), the “hERG current change (%, negative = inhibition) at 10uM” value is on record as -1.24%.

`CCCCCc1n[nH]c2c1CCCC2`: the “hERG current change (%, negative = inhibition) at 10uM” value came to 15.6%. On to `c1ccc2c(Oc3ccc4c(c3)OCO4)nncc2c1`, for which the “hERG current change (%, negative = inhibition) at 10uM” value came out at 5.15%. To `CCCCC/C=C/C1=CC(=O)C[C@H](c2ccc(Cl)cc2)C1` belongs -47.4%.
